{"source": "the supplement of paper PMC8728848", "binders": {"B1": {"name": "NPA (Narcissus pseudonarcissus), C0HM45 (protein)", "chain": "DNILYSGETLSPGEFLNNGRYVFIMQEDCNLVLYDVDKPIWATNTGGLDRRCHLSMQSDGNLVVYSPRNNPIWASNTGGENGNYVCVLQKDRNVVIYGTARWATGTNIH"}}, "test_in_all_cases": "glycan array binding signal (z-score within array); higher = stronger binding", "details_in_all_cases": "glycan notation: IUPAC condensed, linker removed", "key": {"Fuc(a1-2)Gal": {"molecular_target": "Fuc(a1-2)Gal", "how_it_was_run": "(§1)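 From the Consortium for Functional Glycomics database, 3228 arrays were curated, keeping only those whose protein sequence was available. Binding is given as a within-array Z-score averaged across arrays sharing a protein sequence and across linkers. Negative Z-scores can be read as non-binding.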"}, "Fuc(a1-2)Gal(b1-3)GalNAc": {"molecular_target": "Fuc(a1-2)Gal(b1-3)GalNAc", "how_it_was_run": "as §1"}, "[1]": {"molecular_target": "Fuc(a1-2)Gal(b1-3)GalNAc(a1-3)[Fuc(a1-2)]Gal(b1-4)Glc", "how_it_was_run": "as §1"}, "[2]": {"molecular_target": "Fuc(a1-2)Gal(b1-3)GalNAc(a1-3)[Fuc(a1-2)]Gal(b1-4)GlcNAc", "how_it_was_run": "as §1"}, "[3]": {"molecular_target": "Fuc(a1-2)Gal(b1-3)GalNAc(b1-3)Gal", "how_it_was_run": "as §1"}, "[4]": {"molecular_target": "Fuc(a1-2)Gal(b1-3)GalNAc(b1-3)Gal(a1-4)Gal(b1-4)Glc", "how_it_was_run": "as §1"}, "[5]": {"molecular_target": "Fuc(a1-2)Gal(b1-3)GalNAc(b1-4)[Neu5Ac(a2-3)]Gal(b1-4)Glc", "how_it_was_run": "as §1"}, "Fuc(a1-2)Gal(b1-3)GlcNAc": {"molecular_target": "Fuc(a1-2)Gal(b1-3)GlcNAc", "how_it_was_run": "as §1"}, "[6]": {"molecular_target": "Fuc(a1-2)Gal(b1-3)GlcNAc(b1-2)Man(a1-3)[Fuc(a1-2)Gal(b1-3)GlcNAc(b1-2)Man(a1-6)]Man(b1-4)GlcNAc(b1-4)GlcNAc", "how_it_was_run": "as §1"}, "[7]": {"molecular_target": "Fuc(a1-2)Gal(b1-3)GlcNAc(b1-2)Man(a1-3)[Fuc(a1-2)Gal(b1-3)GlcNAc(b1-2)Man(a1-6)]Man(b1-4)GlcNAc(b1-4)[Fuc(a1-6)]GlcNAc", "how_it_was_run": "as §1"}, "[8]": {"molecular_target": "Fuc(a1-2)Gal(b1-3)GlcNAc(b1-3)Gal(b1-4)Glc", "how_it_was_run": "as §1"}, "[9]": {"molecular_target": "Fuc(a1-2)Gal(b1-3)GlcNAc(b1-3)GalNAc", "how_it_was_run": "as §1"}, "[10]": {"molecular_target": "Fuc(a1-2)Gal(b1-3)GlcNAc(b1-3)[Fuc(a1-2)Gal(b1-3)GlcNAc(b1-6)]GalNAc", "how_it_was_run": "as §1"}, "[11]": {"molecular_target": "Fuc(a1-2)Gal(b1-3)GlcNAc(b1-3)[Gal(b1-4)GlcNAc(b1-6)]Gal(b1-4)Glc", "how_it_was_run": "as §1"}, "[12]": {"molecular_target": "Fuc(a1-2)Gal(b1-3)GlcNAc(b1-3)[Neu5Ac(a2-6)Gal(b1-4)GlcNAc(b1-6)]Gal(b1-4)Glc", "how_it_was_run": "as §1"}, "[13]": {"molecular_target": "Fuc(a1-2)Gal(b1-3)GlcNAc6S", "how_it_was_run": "as §1"}, "[14]": {"molecular_target": "Fuc(a1-2)Gal(b1-3)[Fuc(a1-4)]GlcNAc", "how_it_was_run": "as §1"}, "[15]": {"molecular_target": "Fuc(a1-2)Gal(b1-3)[Fuc(a1-4)]GlcNAc(b1-2)Man(a1-3)[Fuc(a1-2)Gal(b1-3)[Fuc(a1-4)]GlcNAc(b1-2)Man(a1-3)]Man(b1-4)GlcNAc(b1-4)GlcNAc", "how_it_was_run": "as §1"}, "[16]": {"molecular_target": "Fuc(a1-2)Gal(b1-3)[Fuc(a1-4)]GlcNAc(b1-2)Man(a1-3)[Fuc(a1-2)Gal(b1-3)[Fuc(a1-4)]GlcNAc(b1-2)Man(a1-6)]Man(b1-4)GlcNAc(b1-4)[Fuc(a1-6)]GlcNAc(b1-4)[Fuc(a1-6)]GlcNAc", "how_it_was_run": "as §1"}, "[17]": {"molecular_target": "Fuc(a1-2)Gal(b1-3)[Fuc(a1-4)]GlcNAc(b1-3)[Fuc(a1-3)[Gal(b1-4)]GlcNAc(b1-6)]Gal(b1-4)Glc", "how_it_was_run": "as §1"}, "[18]": {"molecular_target": "Fuc(a1-2)Gal(b1-3)[Fuc(a1-4)]GlcNAc(b1-3)[Gal(b1-4)GlcNAc(b1-6)]Gal(b1-4)Glc", "how_it_was_run": "as §1"}, "[19]": {"molecular_target": "Fuc(a1-2)Gal(b1-4)Fuc(a1-3)]GlcNAc(b1-2)Man(a1-3)[Fuc(a1-2)Gal(b1-4)[Fuc(a1-3)]GlcNAc(b1-2)Man(a1-6)]Man(b1-4)GlcNAc(b1-4)GlcNAc", "how_it_was_run": "as §1"}, "Fuc(a1-2)Gal(b1-4)Glc": {"molecular_target": "Fuc(a1-2)Gal(b1-4)Glc", "how_it_was_run": "as §1"}, "Fuc(a1-2)Gal(b1-4)Glc6S": {"molecular_target": "Fuc(a1-2)Gal(b1-4)Glc6S", "how_it_was_run": "as §1"}, "Fuc(a1-2)Gal(b1-4)GlcNAc": {"molecular_target": "Fuc(a1-2)Gal(b1-4)GlcNAc", "how_it_was_run": "as §1"}, "[20]": {"molecular_target": "Fuc(a1-2)Gal(b1-4)GlcNAc(b1-2)Man", "how_it_was_run": "as §1"}, "[21]": {"molecular_target": "Fuc(a1-2)Gal(b1-4)GlcNAc(b1-2)Man(a1-3)[Fuc(a1-2)Gal(b1-4)GlcNAc(b1-2)Man(a1-6)]Man(b1-4)GlcNAc(b1-4)GlcNAc", "how_it_was_run": "as §1"}, "[22]": {"molecular_target": "Fuc(a1-2)Gal(b1-4)GlcNAc(b1-2)Man(a1-3)[Fuc(a1-2)Gal(b1-4)GlcNAc(b1-2)Man(a1-6)]Man(b1-4)GlcNAc(b1-4)[Fuc(a1-6)]GlcNAc", "how_it_was_run": "as §1"}, "[23]": {"molecular_target": "Fuc(a1-2)Gal(b1-4)GlcNAc(b1-2)[Fuc(a1-2)Gal(b1-4)GlcNAc(b1-4)]Man(a1-3)[Fuc(a1-2)Gal(b1-4)GlcNAc(b1-2)Man(a1-6)]Man(b1-4)GlcNAc(b1-4)GlcNAc", "how_it_was_run": "as §1"}, "[24]": {"molecular_target": "Fuc(a1-2)Gal(b1-4)GlcNAc(b1-3)Gal(b1-4)GlcNAc", "how_it_was_run": "as §1"}}, "note": "This is one part of the list.", "data": [{"binder": "B1", "values": [{"measurement": "glycan array binding signal (z-score)", "setting": "Fuc(a1-2)Gal", "result": -0.146}, {"measurement": "glycan array binding signal (z-score)", "setting": "Fuc(a1-2)Gal(b1-3)GalNAc", "result": -0.146}, {"measurement": "glycan array binding signal (z-score)", "setting": "[1]", "result": -0.144}, {"measurement": "glycan array binding signal (z-score)", "setting": "[2]", "result": -0.152}, {"measurement": "glycan array binding signal (z-score)", "setting": "[3]", "result": -0.151}, {"measurement": "glycan array binding signal (z-score)", "setting": "[4]", "result": -0.151}, {"measurement": "glycan array binding signal (z-score)", "setting": "[5]", "result": -0.145}, {"measurement": "glycan array binding signal (z-score)", "setting": "Fuc(a1-2)Gal(b1-3)GlcNAc", "result": -0.154}, {"measurement": "glycan array binding signal (z-score)", "setting": "[6]", "result": 0.239}, {"measurement": "glycan array binding signal (z-score)", "setting": "[7]", "result": 0.342}, {"measurement": "glycan array binding signal (z-score)", "setting": "[8]", "result": -0.152}, {"measurement": "glycan array binding signal (z-score)", "setting": "[9]", "result": -0.151}, {"measurement": "glycan array binding signal (z-score)", "setting": "[10]", "result": -0.124}, {"measurement": "glycan array binding signal (z-score)", "setting": "[11]", "result": -0.14}, {"measurement": "glycan array binding signal (z-score)", "setting": "[12]", "result": -0.142}, {"measurement": "glycan array binding signal (z-score)", "setting": "[13]", "result": -0.133}, {"measurement": "glycan array binding signal (z-score)", "setting": "[14]", "result": -0.157}, {"measurement": "glycan array binding signal (z-score)", "setting": "[15]", "result": -0.059}, {"measurement": "glycan array binding signal (z-score)", "setting": "[16]", "result": 0.007}, {"measurement": "glycan array binding signal (z-score)", "setting": "[17]", "result": -0.15}, {"measurement": "glycan array binding signal (z-score)", "setting": "[18]", "result": -0.13}, {"measurement": "glycan array binding signal (z-score)", "setting": "[19]", "result": -0.077}, {"measurement": "glycan array binding signal (z-score)", "setting": "Fuc(a1-2)Gal(b1-4)Glc", "result": -0.143}, {"measurement": "glycan array binding signal (z-score)", "setting": "Fuc(a1-2)Gal(b1-4)Glc6S", "result": -0.134}, {"measurement": "glycan array binding signal (z-score)", "setting": "Fuc(a1-2)Gal(b1-4)GlcNAc", "result": -0.15}, {"measurement": "glycan array binding signal (z-score)", "setting": "[20]", "result": -0.14}, {"measurement": "glycan array binding signal (z-score)", "setting": "[21]", "result": 0.11}, {"measurement": "glycan array binding signal (z-score)", "setting": "[22]", "result": 0.265}, {"measurement": "glycan array binding signal (z-score)", "setting": "[23]", "result": 0.016}, {"measurement": "glycan array binding signal (z-score)", "setting": "[24]", "result": -0.156}]}]}
